Laboratory results: the RNAGym collection of RNA variant scans (doi:10.1073/pnas.2313332121)
Variants at the floor of the assay are shown more often than the library holds them.

B1: TPR 5TU (parent)
chain: GGAUCUUCUCGAUCUAACAAAAAAGACAAAUCUGCCACAAAGCUUGAGAGCAUCUUCGGAUGCAGAGGCGGCAGCCUUCGGUGGCGCGAUAGCGCCAACGUUCUCAACUAUGACACGCAAAACGCGUGCUCCGUUGAAUGGAGUUUAUCAUG

Variants of: B1
Test: polymerase ribozyme fitness, log enrichment relative to wild type (log ratio); higher = more active; in vitro selection for triplet polymerase activity
Method in brief: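 In triplicate, a single round of in vitro selection was run on each mutant library, PCR-built and transcribed, covering one subunit of a heterodimeric triplet polymerase ribozyme. Frozen incubation at −7 °C followed annealing with a biotinylated primer, partner subunit and triplets, and extended constructs were then gel-excised, streptavidin-captured and taken through RT-PCR. Fitness is the logarithm of genotype enrichment over wild-type enrichment, from inverse-variance-weighted replicate averages of Illumina-sequenced inputs and outputs. […] only genotypes with ≥10 input reads and ≥1 read per output were kept.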

Variant	polymerase ribozyme fitness (log ratio)
A12C C14U C57G C79A U134A	≤ -4.2
A12C C14U G59A G83A A89U G100A G117A U145G	≤ -4.2
A12C C18G A24C C43A C76U A142G	≤ -4.2
A12C C27G G88C C118G	≤ -4.2
A12C C36G G46A C69U A73G G81A G140U	≤ -4.2
A12C C36G U45A G84A	≤ -4.2
A12C C38G A64C	≤ -4.2
A12C C38U G50C U53A U55G G71U G92U U148C	≤ -4.2
A12C C43U A52C G84U C93G C132G	≤ -4.2
A12C C51A U53A G70C U90G G141U	≤ -4.2
A12C C51U A66C G81C C103A C108U	≤ -4.2
A12C C54U A91U	≤ -4.2
A12C C54U C57U A89U A97G U102C A120C	≤ -4.2
A12C C54U G59C G68A A91U C93U C95G A107C A115U	≤ -4.2
A12C C54U U77G A98G C105G	≤ -4.2
A12C C57A G88U	≤ -4.2
A12C C57U A66G C96G	≤ -4.2
A12C C57U C76G C96U	≤ -4.2
A12C C57U C76U C93U C125G A138U	≤ -4.2
A12C C57U G68C C85A C87U C96A	≤ -4.2
A12C C76G U102G U148G	≤ -4.2

Variant	polymerase ribozyme fitness (log ratio)
A12C C85G A89G C96U G100A	≤ -4.2
A12C C87A C131A C149A	≤ -4.2
A12C C87A U130C	≤ -4.2
A12C C93A	-2.68
A12C C93A A110G U146G	≤ -4.2
A12C C99U C105G	≤ -4.2
A12C C114U	-2.51
A12C G25U C51G C72G C118G	≤ -4.2
A12C G25U U55A U56C G83C	≤ -4.2
A12C G46A C51U A64G C79G C93A A113C G124U	≤ -4.2
A12C G46C C93U G140U	≤ -4.2
A12C G46C U55A A66G A73U C87A A98C C118U G143C	≤ -4.2
A12C G48C G80C A89G C95A	≤ -4.2
A12C G50A G59C G92U	-2.67
A12C G50U C57A C87G G128A	≤ -4.2
A12C G58A G84U A115U	-3.83
A12C G58A G88C C118G G136U	≤ -4.2
A12C G58C A64U A97G A106C	≤ -4.2
A12C G58C G94C U151G	≤ -4.2
A12C G58U A106C C131G G143U	≤ -4.2
A12C G59C C87A	≤ -4.2

Variant	polymerase ribozyme fitness (log ratio)
A12C G62A C76G G100A U139G	≤ -4.2
A12C G68C C85U C108U A115C	≤ -4.2
A12C G71C C93U A113G	≤ -4.2
A12C G83C G88C C149G	≤ -4.2
A12C G88U A91U C93G C103A A120U G143U	≤ -4.2
A12C U13A G42C C72A C85U G140A	≤ -4.2
A12C U13G A40G U82G G94A C118G	≤ -4.2
A12C U15C U44A G50C G70C U77A	≤ -4.2
A12C U15G C57U U77G C87A C105G	≤ -4.2
A12C U31A A47G C79A	≤ -4.2
A12C U33A G92A	≤ -4.2
A12C U44A G50C U53A C87A A106G A107U	≤ -4.2
A12C U44G A64G C85U	≤ -4.2
A12C U56A G80C G84U C99A G143U	≤ -4.2
A12C U56A G83C C99G G100C U146G	≤ -4.2
A12C U56A U82G G94A A120G U135C U139A	≤ -4.2
A12C U77C C85A C108A U111C A113U	≤ -4.2
A12C U78C C85A C114A G133A G136U	≤ -4.2
A12C U90G	≤ -4.2
A12C U90G A107G A138G	≤ -4.2
A12G A16C A49C U55A C99U U102C U134C A150G	≤ -4.2

Variant	polymerase ribozyme fitness (log ratio)
A12G A16G A39U A47G C75A A89U G133C	≤ -4.2
A12G A16U A24U C38U G58C C69G C125U A150U	≤ -4.2
A12G A16U C54U A73G G83U G84C C95G G140C	≤ -4.2
A12G A16U G50A G83C C85A U90C	≤ -4.2
A12G A17U A49G A60G A91G	-2.9
A12G A19G A30U C43U C54G C85G C129G G143A	≤ -4.2
A12G A19U C75U A89U C93A U102A	≤ -4.2
A12G A20U C32G G83U C87U A150C	≤ -4.2
A12G A21C C87A C108U C132G	≤ -4.2
A12G A22U A24U C32G A37U G117U C129G A147U	≤ -4.2
A12G A22U U56A A66U C79A C85U G92C	≤ -4.2
A12G A23C G59C C75G A110U	≤ -4.2
A12G A24U C69A G81U G83A U109C	≤ -4.2
A12G A24U U55C C63A A91U G128C	≤ -4.2
A12G A26G A52U A91G G141C	≤ -4.2
A12G A26U C32G U82G G84A A91C G152U	≤ -4.2
A12G A26U U31G A91G G133U	≤ -4.2
A12G A28C A41C A91U C96U C99A C108A A138G	≤ -4.2
A12G A28C C79U C85U U102G A106C	≤ -4.2
A12G A28C C79U U82C G86U G88A A106U C129U U148G G152U	≤ -4.2
